According to the supplement of paper PMC7826260:
This is one part of the list. Viral Rep nickase domains cut single-stranded DNA in vitro (3 µM enzyme, 1 h, 37 °C); shown is the middle of each 90-letter strand. The score is log2 (uncut reads / reads without enzyme); strong cutting gives strongly negative numbers. There is no active / inactive call. Reads are scaled to the total; uncut strands gain when others are lost, and binding without cutting may add a little.

What was measured:
Experiment in all cases: uncleaved DNA left, log2 of reads against the no-enzyme library (log2 ratio); higher = less cleavage (more negative = more Rep cleavage of the k-mer); sequences stand for … in CTCGTCCG…ACCGGAGA
[1] = system: T1, Rep nickase domain of Muscovy duck circovirus
T1 sequence (Rep 1-111, printed without the tag): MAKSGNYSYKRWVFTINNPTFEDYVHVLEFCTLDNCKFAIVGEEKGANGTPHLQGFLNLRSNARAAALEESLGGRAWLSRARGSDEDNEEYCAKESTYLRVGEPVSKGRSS
Experimental: (§1)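 A pool of 90-nt single-stranded DNAs with seven random bases just before the constant AC of the nick site (name = the seven bases) was cut by 3 µM recombinant His6-SUMO-tagged Rep nickase domain (300 nM DNA, 50 mM HEPES pH 8.0, 50 mM NaCl, 1 mM MnCl2, 1 h, 37 °C, three replicates). Uncut DNA was amplified and sequenced.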

[2] = system: T2, Rep nickase domain of banana bunchy top virus
T2 sequence (Rep 1-94, printed without the tag): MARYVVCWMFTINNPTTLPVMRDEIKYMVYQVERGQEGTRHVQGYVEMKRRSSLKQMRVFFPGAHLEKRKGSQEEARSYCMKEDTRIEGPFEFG
Experimental: as §1

[3] = system: T3, Rep nickase domain of cabbage leaf curl virus
T3 sequence (Rep 1-116, printed without the tag): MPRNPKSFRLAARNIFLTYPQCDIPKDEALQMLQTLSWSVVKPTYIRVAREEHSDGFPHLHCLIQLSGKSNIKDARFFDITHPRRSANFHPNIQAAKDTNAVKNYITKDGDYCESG
Experimental: as §1

[4] = system: T4, Rep nickase domain of chickpea chlorotic dwarf virus
T4 sequence (Rep 1-124, printed without the tag): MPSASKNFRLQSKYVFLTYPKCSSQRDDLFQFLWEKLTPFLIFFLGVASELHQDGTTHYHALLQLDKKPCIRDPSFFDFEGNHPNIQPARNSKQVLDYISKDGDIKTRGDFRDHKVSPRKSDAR
Experimental: as §1

[5] = system: T5, Rep nickase domain of faba bean necrotic yellows virus
T5 sequence (Rep 1-98, printed without the tag): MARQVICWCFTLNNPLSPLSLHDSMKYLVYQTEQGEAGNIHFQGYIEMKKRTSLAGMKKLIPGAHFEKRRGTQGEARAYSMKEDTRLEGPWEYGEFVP
Experimental: as §1

[6] = system: T6, Rep nickase domain of maize striate mosaic virus
T6 sequence (Rep 1-117, printed without the tag): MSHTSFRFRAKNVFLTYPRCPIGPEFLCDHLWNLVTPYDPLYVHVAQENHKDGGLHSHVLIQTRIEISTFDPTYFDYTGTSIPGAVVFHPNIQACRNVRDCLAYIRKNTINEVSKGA
Experimental: as §1

[7] = system: T7, Rep nickase domain of porcine circovirus 2
T7 sequence (Rep 2-116, printed without the tag): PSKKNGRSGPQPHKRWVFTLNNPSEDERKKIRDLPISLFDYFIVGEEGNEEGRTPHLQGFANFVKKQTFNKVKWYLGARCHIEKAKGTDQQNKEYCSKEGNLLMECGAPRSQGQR
Experimental: as §1

[8] = system: T8, Rep nickase domain of tomato golden mosaic virus
T8 sequence (Rep 1-124, printed without the tag): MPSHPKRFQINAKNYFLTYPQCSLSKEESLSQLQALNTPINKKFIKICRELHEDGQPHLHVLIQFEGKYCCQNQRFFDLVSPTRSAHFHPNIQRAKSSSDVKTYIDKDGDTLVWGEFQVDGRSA
Experimental: as §1

[9] = system: T9, Rep nickase domain of tomato yellow leaf curl virus
T9 sequence (Rep 1-136, printed without the tag): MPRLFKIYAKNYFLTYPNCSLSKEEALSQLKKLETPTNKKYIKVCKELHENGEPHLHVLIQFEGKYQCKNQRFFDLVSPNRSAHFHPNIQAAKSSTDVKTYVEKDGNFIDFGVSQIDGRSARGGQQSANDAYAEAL
Experimental: as §1

[10] = system: T10, Rep nickase domain of wheat dwarf virus
T10 sequence (Rep 1-137, printed without the tag): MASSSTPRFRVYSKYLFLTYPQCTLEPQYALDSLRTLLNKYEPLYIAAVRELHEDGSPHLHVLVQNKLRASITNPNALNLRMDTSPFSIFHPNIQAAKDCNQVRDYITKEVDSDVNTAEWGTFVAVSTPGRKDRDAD
Experimental: as §1

Row | Sequence | uncleaved DNA left (log2) [1] | uncleaved DNA left (log2) [2] | uncleaved DNA left (log2) [3] | uncleaved DNA left (log2) [4] | uncleaved DNA left (log2) [5] | uncleaved DNA left (log2) [6] | uncleaved DNA left (log2) [7] | uncleaved DNA left (log2) [8] | uncleaved DNA left (log2) [9] | uncleaved DNA left (log2) [10]
1 | GATATGA | 0.086 | 0.0642 | 0.302 | 0.689 | 0.0934 | 0.681 | 0.0737 | 0.106 | -0.0119 | 0.0762
2 | TGATTTA | -0.132 | -0.0624 | 0.0615 | -0.895 | -0.0742 | 0.161 | -0.321 | -0.0637 | -0.00755 | 0.0607
3 | CTGGTCA | -0.048 | -0.0119 | 0.0775 | -0.398 | -0.087 | -0.288 | -0.0203 | -0.0639 | 0.1 | -0.0592
4 | CACTATA | -0.19 | -0.247 | -0.238 | -2.47 | 0.158 | -0.49 | -2.69 | 0.00943 | 0.0441 | 0.0619
5 | AGAAGCC | 0.0551 | 0.073 | 0.013 | 0.121 | 0.0884 | -0.387 | 0.0761 | 0.105 | 0.0021 | -0.0378
6 | CAGAGAA | -0.0475 | -0.095 | -0.0342 | 0.15 | -0.136 | -0.202 | -0.473 | -0.114 | -0.154 | -0.149
7 | CGGTTTC | 0.113 | -0.011 | 0.239 | 0.469 | -0.0583 | 0.594 | 0.0594 | -0.0235 | 0.0252 | 0.0771
8 | AGTACTA | 0.0678 | 0.00778 | 0.0105 | -0.257 | -0.0209 | 0.728 | -0.514 | 0.0771 | 0.0559 | 0.146
9 | ATTTGCT | -0.604 | -0.403 | -0.795 | -0.952 | -0.0183 | -1.03 | -1.27 | -0.0869 | 0.0251 | -0.212
10 | GTTATAG | 0.0876 | 0.0865 | 0.0205 | 0.212 | 0.0486 | -0.419 | 0.117 | 0.0921 | 0.0514 | 0.0611
11 | CATCATT | -0.27 | -0.514 | -0.14 | -2.47 | -0.042 | -0.471 | -2.5 | 0.0627 | 0.168 | -0.136
12 | AGCCCGG | 0.0529 | 0.0614 | 0.0992 | 0.828 | 0.045 | 1.14 | 0.072 | 0.0181 | -0.179 | 0.0576
13 | GGTACTT | -0.13 | -0.00521 | 0.758 | 1.77 | -0.0587 | 2.09 | 0.142 | -0.123 | -0.0475 | -0.0218
14 | CTGTCGG | -0.0548 | -0.054 | 0.517 | 1.77 | 0.0298 | 1.71 | -0.0392 | 0.135 | -0.113 | -0.0605
15 | CTGCGGT | 0.0355 | -0.038 | -0.554 | -0.553 | 0.0448 | -0.726 | 0.162 | 0.0311 | 0.0791 | -0.0598
